According to PMC9911399, “Two distinct binding modes provide the RNA-binding protein RbFox with extraordinary sequence specificity”:
Changes are numbered by the printed parent chain; changes in the protein carry UniProt numbers. Some of the results follow.

T1: RBFOX1 RRM RbFoxmut (Fox-RRM*) (Homo sapiens, UniProt Q9NWB1 109-208, R118D;E147R;N151S;E152T)
T1 sequence: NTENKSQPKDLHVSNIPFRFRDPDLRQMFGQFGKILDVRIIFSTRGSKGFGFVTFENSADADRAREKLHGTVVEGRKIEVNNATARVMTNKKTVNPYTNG

B1: UACGCUU (DNA:RNA)
RNA: GGGAGACCGGAAUUCAGAUUGUCCUACGCUUUUAAAUCCCGUCGUAGCCACCA
DNA 1: CAATCTGAATTCCGGTCTCCC
DNA 2: TGGTGGCTACGACGGGATT
B2: GUCCUGA (DNA:RNA)
RNA: B1 RNA with U25G, A26U, G28C, C29U, U30G, U31A
DNA 1: CAATCTGAATTCCGGTCTCCC
DNA 2: TGGTGGCTACGACGGGATT
B3: UAUAAAU (DNA:RNA)
RNA: B1 RNA with C27U, G28A, C29A, U30A
DNA 1: CAATCTGAATTCCGGTCTCCC
DNA 2: TGGTGGCTACGACGGGATT
B4: AAUGAAC (DNA:RNA)
RNA: B1 RNA with U25A, C27U, C29A, U30A, U31C
DNA 1: CAATCTGAATTCCGGTCTCCC
DNA 2: TGGTGGCTACGACGGGATT
B5: AUCCCAC (DNA:RNA)
RNA: B1 RNA with U25A, A26U, G28C, U30A, U31C
DNA 1: CAATCTGAATTCCGGTCTCCC
DNA 2: TGGTGGCTACGACGGGATT
B6: UGUGAUC (DNA:RNA)
RNA: B1 RNA with A26G, C27U, C29A, U31C
DNA 1: CAATCTGAATTCCGGTCTCCC
DNA 2: TGGTGGCTACGACGGGATT
B7: CCGGGGC (DNA:RNA)
RNA: B1 RNA with U25C, A26C, C27G, C29G, U30G, U31C
DNA 1: CAATCTGAATTCCGGTCTCCC
DNA 2: TGGTGGCTACGACGGGATT
B8: GCCGGGC (DNA:RNA)
RNA: B1 RNA with U25G, A26C, C29G, U30G, U31C
DNA 1: CAATCTGAATTCCGGTCTCCC
DNA 2: TGGTGGCTACGACGGGATT
B9: AACAAGG (DNA:RNA)
RNA: B1 RNA with U25A, G28A, C29A, U30G, U31G
DNA 1: CAATCTGAATTCCGGTCTCCC
DNA 2: TGGTGGCTACGACGGGATT
B10: CCCCGCU (DNA:RNA)
RNA: B1 RNA with U25C, A26C, G28C, C29G, U30C
DNA 1: CAATCTGAATTCCGGTCTCCC
DNA 2: TGGTGGCTACGACGGGATT
B11: AACCCGA (DNA:RNA)
RNA: B1 RNA with U25A, G28C, U30G, U31A
DNA 1: CAATCTGAATTCCGGTCTCCC
DNA 2: TGGTGGCTACGACGGGATT
B12: UUUGGUU (DNA:RNA)
RNA: B1 RNA with A26U, C27U, C29G
DNA 1: CAATCTGAATTCCGGTCTCCC
DNA 2: TGGTGGCTACGACGGGATT
B13: AUGUUCG (DNA:RNA)
RNA: GGGAGACCGGAAUUCAGAUUGUCCAUGUUCGUUAAAUCCCGUCGUAGCCACCA
DNA 1: CAATCTGAATTCCGGTCTCCC
DNA 2: TGGTGGCTACGACGGGATT
B14: GUGGCGC (DNA:RNA)
RNA: B13 RNA with A25G, U28G, U29C, C30G, G31C
DNA 1: CAATCTGAATTCCGGTCTCCC
DNA 2: TGGTGGCTACGACGGGATT
B15: CCCUAAU (DNA:RNA)
RNA: B1 RNA with U25C, A26C, G28U, C29A, U30A
DNA 1: CAATCTGAATTCCGGTCTCCC
DNA 2: TGGTGGCTACGACGGGATT
B16: CACAGGC (DNA:RNA)
RNA: B1 RNA with U25C, G28A, C29G, U30G, U31C
DNA 1: CAATCTGAATTCCGGTCTCCC
DNA 2: TGGTGGCTACGACGGGATT
B17: CUAUGUC (DNA:RNA)
RNA: B13 RNA with A25C, G27A, U29G, C30U, G31C
DNA 1: CAATCTGAATTCCGGTCTCCC
DNA 2: TGGTGGCTACGACGGGATT
B18: ACGUCAC (DNA:RNA)
RNA: B13 RNA with U26C, U29C, C30A, G31C
DNA 1: CAATCTGAATTCCGGTCTCCC
DNA 2: TGGTGGCTACGACGGGATT
B19: CCUAGAU (DNA:RNA)
RNA: B1 RNA with U25C, A26C, C27U, G28A, C29G, U30A
DNA 1: CAATCTGAATTCCGGTCTCCC
DNA 2: TGGTGGCTACGACGGGATT
B20: CUCCCGG (DNA:RNA)
RNA: B13 RNA with A25C, G27C, U28C, U29C, C30G
DNA 1: CAATCTGAATTCCGGTCTCCC
DNA 2: TGGTGGCTACGACGGGATT
B21: UCCGUUC (DNA:RNA)
RNA: B1 RNA with A26C, C29U, U31C
DNA 1: CAATCTGAATTCCGGTCTCCC
DNA 2: TGGTGGCTACGACGGGATT
B22: GACGACU (DNA:RNA)
RNA: B1 RNA with U25G, C29A, U30C
DNA 1: CAATCTGAATTCCGGTCTCCC
DNA 2: TGGTGGCTACGACGGGATT
B23: UAUAUCC (DNA:RNA)
RNA: B13 RNA with A25U, U26A, G27U, U28A, G31C
DNA 1: CAATCTGAATTCCGGTCTCCC
DNA 2: TGGTGGCTACGACGGGATT
B24: UGGACUA (DNA:RNA)
RNA: B1 RNA with A26G, C27G, G28A, U31A
DNA 1: CAATCTGAATTCCGGTCTCCC
DNA 2: TGGTGGCTACGACGGGATT
B25: UUAUCCU (DNA:RNA)
RNA: B13 RNA with A25U, G27A, U29C, G31U
DNA 1: CAATCTGAATTCCGGTCTCCC
DNA 2: TGGTGGCTACGACGGGATT
B26: AGAACUG (DNA:RNA)
RNA: B13 RNA with U26G, G27A, U28A, U29C, C30U
DNA 1: CAATCTGAATTCCGGTCTCCC
DNA 2: TGGTGGCTACGACGGGATT
B27: GAGAACC (DNA:RNA)
RNA: B13 RNA with A25G, U26A, U28A, U29A, G31C
DNA 1: CAATCTGAATTCCGGTCTCCC
DNA 2: TGGTGGCTACGACGGGATT
B28: GCUGGAA (DNA:RNA)
RNA: B1 RNA with U25G, A26C, C27U, C29G, U30A, U31A
DNA 1: CAATCTGAATTCCGGTCTCCC
DNA 2: TGGTGGCTACGACGGGATT
B29: AGAAAUU (DNA:RNA)
RNA: B1 RNA with U25A, A26G, C27A, G28A, C29A
DNA 1: CAATCTGAATTCCGGTCTCCC
DNA 2: TGGTGGCTACGACGGGATT
B30: AAACUCG (DNA:RNA)
RNA: B13 RNA with U26A, G27A, U28C
DNA 1: CAATCTGAATTCCGGTCTCCC
DNA 2: TGGTGGCTACGACGGGATT
B31: CGAGACG (DNA:RNA)
RNA: B13 RNA with A25C, U26G, G27A, U28G, U29A
DNA 1: CAATCTGAATTCCGGTCTCCC
DNA 2: TGGTGGCTACGACGGGATT

target: T1, RBFOX1 RRM RbFoxmut (Fox-RRM*); assay: EMSA; HiTS-Eq, 1 nM pool, 10 min; buffer printed only for the single-RNA assays: 10 mM Tris pH 7.5, 150 mM NaCl, 3.4 mM EDTA, 0.001% NP-40, 30 C; conditions: tags: His6 N-terminal (pET28a); label: 5' 32P
In short: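 Purified wild-type or mutant RbFox RRM at increasing concentrations was equilibrated with 1 nM of 5′-radiolabelled RNA carrying 7 randomized nucleotides for 10 min in 50 µL. Unbound RNA was separated by 8% native PAGE and sequenced. Relative association constants came from read-count changes of each RNA species compared with the control reaction, normalised to the cognate motif.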

Binder | binding signal
B1 | 0.0979 KA relative to UGCAUGU
B2 | 0.112 KA relative to UGCAUGU
B3 | 0.0469 KA relative to UGCAUGU
B4 | 0.0901 KA relative to UGCAUGU
B5 | 0.0711 KA relative to UGCAUGU
B6 | 0.395 KA relative to UGCAUGU
B7 | 0.101 KA relative to UGCAUGU
B8 | 0.101 KA relative to UGCAUGU
B9 | 0.0693 KA relative to UGCAUGU
B10 | 0.0902 KA relative to UGCAUGU
B11 | 0.0618 KA relative to UGCAUGU
B12 | 0.098 KA relative to UGCAUGU
B13 | 0.412 KA relative to UGCAUGU
B14 | 0.135 KA relative to UGCAUGU
B15 | 0.0718 KA relative to UGCAUGU
B16 | 0.078 KA relative to UGCAUGU

Binder | binding signal
B17 | 0.179 KA relative to UGCAUGU
B18 | 0.0789 KA relative to UGCAUGU
B19 | 0.0917 KA relative to UGCAUGU
B20 | 0.0807 KA relative to UGCAUGU
B21 | 0.0449 KA relative to UGCAUGU
B22 | 0.0456 KA relative to UGCAUGU
B23 | 0.0785 KA relative to UGCAUGU
B24 | 0.057 KA relative to UGCAUGU
B25 | 0.0814 KA relative to UGCAUGU
B26 | 0.0709 KA relative to UGCAUGU
B27 | 0.0646 KA relative to UGCAUGU
B28 | 0.104 KA relative to UGCAUGU
B29 | 0.0606 KA relative to UGCAUGU
B30 | 0.0716 KA relative to UGCAUGU
B31 | 0.0958 KA relative to UGCAUGU
